In the supplement of paper PMC11417369:
± gives the standard deviation of the averaged measurements. Some of the results follow.

System: PfAP2-LT AP2 domain (GST-tagged)
Assay: gcPBM binding intensity (ln(normalized median fluorescence intensity)); higher = stronger DNA binding
Outline: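 Each value is the highest Masliner-normalised natural-log median intensity across replicate spots of either orientation of a probe. The probes were primer-extended double-stranded 36-bp intergenic genomic sequences on an Agilent 4 × 180k array, alongside negative controls, exposed for 1 h to GST-tagged P. falciparum DNA-binding domains expressed in E. coli. Bound protein was picked up with Alexa488 anti-GST antibody and scanned at 488 nm.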

Sequence | gcPBM binding intensity (ln)
ATAAAAAAAAATAGCACACATAAATATATTATATAT [CACACA_site767] | 8.96 ± 0.45
AAAAAATACCTCTATAGTACATATATATAATATTTA [XGTACX_site7222] | 8.62 ± 0.33
AAAAAAAATTTATTTGCATGCAAAAAAAAAAAAAAA [TGCATGCA_site67] | 8.79 ± 0.32
TAATTATGTATGAACTGTACAGGTTATTTTATTTTA [XGTACX_site5204] | 8.65 ± 0.39
TAAAATTTAAATTATACACACTTAAGTAACATCATC [CACACA_site4450] | 8.77 ± 0.37
AAAAATAAAACAATTACACACATAACTTTATTTTTA [CACACA_site6563] | 8.81 ± 0.38
AAAAGCTTAAAAAATTGTACATAAATGAATAAATAT [XGTACX_site5201] | 8.77 ± 0.44
TAAACCTATTATACGGGTACTTATTTGATTCTTATA [XGTACX_site5292] | 8.69 ± 0.47
ACAAATGGAACTCCTACAAAAAATTTCCATAATATT [XGTACX_negctrl_site132] | 8.56 ± 0.4
ACCACCATATAACATACATGCATCTTTTTTCCCTTC [TGCATGCA_site583] | 9.23 ± 0.52
GAACTCATTTAATATTGTACATTCTGATATTTTTTA [XGTACX_site5995] | 8.78 ± 0.48
TCTTGTTAATATATTAAATATATCTATAAATATATA [XGTACX_negctrl_site486] | 8.44 ± 0.4
TATATACATACATATACACACATATATATATATATA [CACACA_site401] | 9.72 ± 0.21
TCATTGTTTAATATGTGTCCTCAAAATTTGTTATAT [XGTACX_site677] | 8.69 ± 0.34
TCATATTCCAAGTGTACACATAAATCCCTAATAACA [CACACA_site5167] | 8.84 ± 0.33
GTATAAAATATTGATTGTACTTTATTCATTTTTTTT [XGTACX_site2520] | 8.6 ± 0.67
ACAATTCATTAGAATTGTACAAAAGGATGAAGCGAA [XGTACX_site5242] | 9.01 ± 0.45
ATTTAATACAAATACACACACAAATATGTACCTATA [CACACA_site7718] | 9.44 ± 0.29
ATTTTTTTTTTTTAATTTGATATTTGCGTTTATATA [CACACA_negctrl_site1305] | 8.8 ± 0.52
CATTTAGTTCATACTATGCACACTACGTATATTTTT [CACACA_site2694] | 9.2 ± 0.38
TGTATAAAAAACTAATGTACAAATGACAAGATATCT [XGTACX_site4600] | 8.84 ± 0.41
AATGCACAGCTCTTAGGCAAAAGTGGGTATTTACAC [GTGCAC_negctrl_site579] | 8.81 ± 0.52

Sequence | gcPBM binding intensity (ln)
AAAAAATGTTAAAAAAGTACTTTCTTTATTTAATAA [XGTACX_site2908] | 8.32 ± 0.56
AGACGTAATAATTGTTGTACATAAAAAAATAAGAAA [XGTACX_site7594] | 8.88 ± 0.59
AACAATTGTTAAAGGTGTACCATATGTATATAAGAA [XGTACX_site5723] | 9 ± 0.45
ATGATATTATAAAAAAGTACATATGTATATAATTAT [XGTACX_site7652] | 9.1 ± 0.26
TGTGTTAGCAAAAAAGTGCACAGGGAAAAAAAAATA [GTGCAC_site9397] | 8.91 ± 0.5
AATATATGATAATTTTTTTTTTTTTTTTTTAAATAT [CACACA_negctrl_site452] | 8.13 ± 0.5
TATTCTTATTATTACACACACAATTATATTTACCCC [CACACA_site6381] | 9.29 ± 0.32
TATATATATATAATAGCATGCTATATTATATATATA [TGCATGCA_site886] | 8.59 ± 0.3
TATTTTTTAATTGTTTCACACATTATTTTTTACATA [CACACA_site6078] | 8.86 ± 0.36
TTAACATAAATTGTGTCATTTTTTTTTTTTTTTTTA [CACACA_negctrl_site1221] | 8.3 ± 0.54
TACACCCAGAAATGCACACACATATATATATATATA [CACACA_site5289] | 10.26 ± 0.071
ATAATATATATATATATGTATGTATATATGTATGTA [GTGCAC_negctrl_site575] | 8.97 ± 0.43
ATGAACATGTGACAATGTACATTTATATCTTAAGAA [XGTACX_site4960] | 8.97 ± 0.53
ATCAGGCAAAATTTTTGTACATATATATTTTATTTT [XGTACX_site1245] | 8.94 ± 0.35
TTATAAATGTGCGTAGTGCATAAACAAAAAAAAAAT | 9.04 ± 0.52
ATTTTTTTTTTTTTTTTTTTTTTTTATGAATGTTAT [CACACA_negctrl_site1319] | 8.57 ± 0.61
AGATTTCAAGGTAATAGATCAATTTTAATTTGTAAA [CACACA_negctrl_site514] | 8.31 ± 0.57
ATTTTTTTTTTTTTTTTTTTTTTTTTTTTTTTTTTT [CACACA_negctrl_site1364] | 8.935 ± 0.035
TTAACACATTTTATGTGTACTCATATGATTTAAAAT [XGTACX_site7516] | 8.69 ± 0.4
TTAAAATGAAGAAGTGCACACATATATATATTTATA [CACACA_site8063] | 9.11 ± 0.41
CTAATAAAAAAAAAAAGTACATATGACAATATAAAG [XGTACX_site1598] | 8.91 ± 0.56
AATTTTTTTTTCTTTTGTACGTAAATATGTGTAGGC [XGTACX_site215] | 8.69 ± 0.43

Sequence | gcPBM binding intensity (ln)
TATAAACAGACGAAAACACACATATGTAGATATATA [CACACA_site6371] | 9.22 ± 0.47
TATATATTAGTGTTGACACACACAAAAAAAAAAAAA [CACACA_site8392] | 8.94 ± 0.5
AAAAAAAGTAAAAAGTGTACTTAATATATATATATA [XGTACX_site838] | 8.86 ± 0.35
TGTAGCATTTAATTCACACATAAAAAATGTATCCAT [CACACA_site4986] | 8.63 ± 0.4
TATATGTGATAACACGCACACAAATGTATATAATTT [CACACA_site2593] | 9.38 ± 0.35
AAAAAAAAAAAACATACACACATTGAACTTTTATAT [CACACA_site3250] | 8.88 ± 0.45
ATAAAATAAAAATTCTGTACAGAATTAAAAAAATAT [XGTACX_site6961] | 8.79 ± 0.47
TATTCATGCATATACACACACATATATATATATTTT [CACACA_site3955] | 9.36 ± 0.22
AAAAAAAAATTAAACATACACACGTTACTATTTTTA [CACACA_site1687] | 8.72 ± 0.51
AATGAAAAATTGTAATGTACATAAATAAATAAATAA [XGTACX_site4048] | 9.05 ± 0.52
ATCATAATTTATTATACACACAATACGTGACCTATT [CACACA_site6977] | 9.24 ± 0.47
TTTTATATAAATATCACACACACACGCATGTTTTAA [CACACA_site6187] | 9.52 ± 0.27
TACAATATACCTACTTGTACACAAAATAAAAGTAGT [XGTACX_site6029] | 8.89 ± 0.38
TACACACCTAACTATGCATGCATCAATATAGTGGAT [TGCATGCA_site443] | 9.15 ± 0.18
TTTTTTTATATTATACGCACTAATATATATATATAT [XGTACX_negctrl_site40] | 8.79 ± 0.49
AAATAGACATAAAAAGGTACACAAATTGTGTATTAA [XGTACX_site527] | 9.04 ± 0.57
TAACACTTTTTTTTTCGTACATATATTATATATATA [XGTACX_site5470] | 8.69 ± 0.45
TTTAATTTTCCCTTCACACATAATATATATCTGTAT [CACACA_site5370] | 8.84 ± 0.56
CGTTTGGTACACGTAGTGTTTTCGTTTGAATGTACC [GTGCAC_negctrl_site201] | 9.02 ± 0.44
TTTAATCAATGATTTAATGAAAAAAGCAAAAAAAAA [GTGCAC_negctrl_site213] | 8.26 ± 0.55
GACATATATAGCAATCGTACATATATTATAAAAGGT [XGTACX_site6891] | 9.24 ± 0.42
AAAAGGAACAGACACACACACATATATAAATATGTA [CACACA_site7656] | 9.8 ± 0.42

Sequence | gcPBM binding intensity (ln)
TATTAATTTATTTGTTGTACGTAAATATGCTTGTTT [XGTACX_site6591] | 8.87 ± 0.6
AAAAAAAAAAAAAATTGTACCCAAATATTTTTGTAG [XGTACX_site8303] | 8.38 ± 0.49
ATATATATATTTAAGGTGCGATTTTGTTATATTTAA | 8.76 ± 0.36
TTTTTATTAGGACATGCATACAAAATTAAAAAAAAT [TGCATGCA_site258] | 8.54 ± 0.37
GTATATAATTTATGTGCACACACTCCTATTTTTAGC [CACACA_site49] | 9.44 ± 0.38
AATTATATTAATATATAATAAAATAGGATGTTATTT [XGTACX_negctrl_site309] | 8.44 ± 0.49
TTATGTATATTATAAATTAATACATTTAAATTAATA [CACACA_negctrl_site34] | 8.04 ± 0.41
TTATTAAAATATTAAAGTACAAAAAAAATAAATAAA [XGTACX_site6507] | 8.53 ± 0.45
CTTATTTTATGTTATACACACAAAGAAAAAAAATAA [CACACA_site2165] | 8.62 ± 0.42
AAAAATTAGAAACACACACACATATATATATATATT [CACACA_site1042] | 9.66 ± 0.42
TCAAATGTATATAATTGTACTTATCCTTTTCATTTT [XGTACX_site4879] | 8.8 ± 0.49
TTTTAAGTTTTTGAATGTACGTAATTTGTAAATTCT [XGTACX_site2448] | 8.49 ± 0.47
TATAAAATACTGTATCGATGGGGGAGGGCGCAGGGG [TGCATGCA_negctrl_site250] | 10.4 ± 0.16
AAAAAAAAAAAAAAAAAAAAAAAAAAAGATTATGAG [CACACA_negctrl_site1088] | 8.64 ± 0.23
AAGAACAAACAAAATAGTACAATATATATATATATA [XGTACX_site4258] | 9.58 ± 0.41
TTTAAATATTTTATAGCATGCTACCAATATGTATAT [TGCATGCA_site291] | 8.83 ± 0.52
CATATATAGATATATACACACATATAGATTTTCTTT [CACACA_site6797] | 8.92 ± 0.38
TATTCATAACAATGATGTACATATATTTTTTTTTTC [XGTACX_site5619] | 8.63 ± 0.42
AACTATAATTAAAGGATGCACTTGAAGGCATTTCAA [GTGCAC_site9689] | 8.7 ± 0.48
TTACTTGTTTATTTTTTTTTTTTTTTTTTTTTTGTT [TGCATGCA_negctrl_site103] | 8.41 ± 0.73
TAATGGAGAAAATAATGTACTTAGATATTTGTTCTA [XGTACX_site6312] | 8.44 ± 0.42
CAATGTATTTAGAATACATGCATATTTTCATAATGT [TGCATGCA_site221] | 8.6 ± 0.45
